Test results published in the RNAGym collection of RNA variant scans (doi:10.7554/elife.90254).
The source gives no read counts; variants with many changes may rest on few reads.

B1: LINE1-mini (parent)
chain: GGCAGAGCUCAACACAGCGUGGCAAAGUGGCUGUGGCUAGACUGCC

Variants of: B1
Assay: self-cleavage, relative activity (ratio to wild type); higher = more cleavage; in vitro, sequencing; the parent is a self-cleaving ribozyme
GGCAUGGCUCAACACAGCGUCGCAAAGUGGCUGGGGCAAGACUGCC [G5U A6G G21C U34G U38A] gave a self-cleavage of 0.04.
GGCAUGGCUCAACACAGCGUUGCAAAGUGGCUGUGGCUAGACUGCC [G5U A6G G21U] showed a self-cleavage of 0.05.
Work on GGCAUGGCUCAACACAGCGUGGCAAAGUGGCUGUAGCUAGACUGUC [G5U A6G G35A C45U] yielded a self-cleavage of 0.07.
GGCAUGGCCCACCACAGCGUAGCAACGUGGAUGUGGCUAGACUGCC [G5U A6G U9C A12C G21A A26C C31A] gave a self-cleavage of 0.01.
GGCAUUGCUCGCCACAGCGUGGCAAAGUGGGUUUGGCUAGACUUAC [G5U A6U A11G A12C C31G G33U G44U C45A] gave a self-cleavage of 0.
In the case of GGCAUUGCUCAACAAAACGUGGCAAAGUGGCUGUGGCUAUACUGCC [G5U A6U C15A G17A G40U], the self-cleavage is reported as 0.02.
With GGCAUUGCUCAACACAGCGUGGCAAAGUGGAUGUGGCUAGACUGCC [G5U A6U C31A] the self-cleavage was 0.1.
GGCAUUGCUCAACACAGCCAGGCAAUGUGGCUGUGGCUAGACUGCC [G5U A6U G19C U20A A26U] gave a self-cleavage of 0.11.
Variant GGCAUUGCUCAACACAGCGUCGCAAAGUGGCUGUGGCUGGACUGUC [G5U A6U G21C A39G C45U] has a self-cleavage of 0.08.
Work on GGCAUUGCUCAACACAGCGUGGCAAAGUGGCUGUUGCUAGACUGCC [G5U A6U G35U] yielded a self-cleavage of 0.11.
With GGCAUAGCUCCGCACAGCGUGGCAAAGUGGCUGUGGCUAGACUUCC [G5U A11C A12G G44U] the self-cleavage was 0.
With GGCAUAGCUCCUCACAGCUUGGCAAAGUGGCUGUGGCUAGACUGCG [G5U A11C A12U G19U C46G] the self-cleavage was 0.02.
In the case of GGCAUAGCUCCACCCGGCGUGGCAAAGUGGCUGUGGCUAGACUGCA [G5U A11C A14C A16G C46A], the self-cleavage is reported as 0.02.
Variant GGCAUAGCUCCACACAGCGUGGCCAAGUGGCCGUGGCUAGACUGCA [G5U A11C A24C U32C C46A] has a self-cleavage of 0.04.
In the case of GGCAUAGCUCCAAACAGCGUGGCAAAGUGGCUGUGGCUAGACCGCC [G5U A11C C13A U43C], the self-cleavage is reported as 0.05.
GGCAUAGCUCCACACAGCGUGGCAAAGUGCCUGUGUCUAGACUGCC [G5U A11C G30C G36U] showed a self-cleavage of 0.02.
GGCAUAGCUCCACACAGCGUGGCAAAGUGGCUGUUGCUAGACUGCC [G5U A11C G35U] gave a self-cleavage of 0.01.
Work on GGCAUAGCUCGUCAAAGCGUGACAAAAUGGCUGUGGCUAGACUGCC [G5U A11G A12U C15A G22A G27A] yielded a self-cleavage of 0.
GGCAUAGCUCGAUCCAGCGUUGCAAAGUGGCUGUGGCUAGACUGCC [G5U A11G C13U A14C G21U] showed a self-cleavage of 0.04.
Variant GGCAUAGCUCGAUACAGCUUGUCAAAGUGGCUGUGGCUAGACUGCC [G5U A11G C13U G19U G22U] has a self-cleavage of 0.03.
Work on GGCAUAGCUCGACACAGCGUGGCAAAGUGGCUGUGGCUAGAAUGCC [G5U A11G C42A] yielded a self-cleavage of 0.01.
Variant GGCAUAGCUCGACACAGCGUGGCAAAGUUGCUGUGGCUAGACUGCC [G5U A11G G29U] has a self-cleavage of 0.
GGCAUAGCUCGACACAGCGUGGCAAAGAGGCUGUGGCCAGCAUGCC [G5U A11G U28A U38C A41C C42A] showed a self-cleavage of 0.
For GGCAUAGCUCGACACAGCGUGGCAAAGUGGCGGUGGCUAGACUGCC [G5U A11G U32G], the self-cleavage was 0.
GGCAUAGCUCUACACCGCGUGGCAAAGUGGCUGUGGCUAGACUGCC [G5U A11U A16C] showed a self-cleavage of 0.
Variant GGCAUAGCUCUACACGGCGUGGCAAAGUGGCUGUGGCUAGACUGCC [G5U A11U A16G] has a self-cleavage of 0.03.
Work on GGCAUAGCUCUACACGGCGUGCCAAAGUGACUGUGGCUAUACUGCC [G5U A11U A16G G22C G30A G40U] yielded a self-cleavage of 0.01.
GGCAUAGCUCUAUACAGCUUGGCAAAGUGGCUGUGGCUAGAGUGCC [G5U A11U C13U G19U C42G] showed a self-cleavage of 0.02.
In the case of GGCAUAGCUCUACACAGCGUGGAAAAGGGGCUGUGGCUAGACUGCC [G5U A11U C23A U28G], the self-cleavage is reported as 0.01.
GGCAUAGCUCUACACAGCUUGGCAAAGUGGCUGUGGCUAGACUGCC [G5U A11U G19U] gave a self-cleavage of 0.02.
For GGCAUAGCUCUACACAGCGUGGCAAAGUUGCUGUGGCUAGAAUGCC [G5U A11U G29U C42A], the self-cleavage was 0.11.
In the case of GGCAUAGCUCUACACAGCGUGGCAAAGUGGCGGUGGCUAGACUGCC [G5U A11U U32G], the self-cleavage is reported as 0.05.
With GGCAUAGCUCACCACCGCGUGGCAAAGUGGCUGUGGCUAGACUGCC [G5U A12C A16C] the self-cleavage was 0.02.
GGCAUAGCUCACCACAGGGUGGCAAAGUGGCUGUGGCUAGACUGCU [G5U A12C C18G C46U] showed a self-cleavage of 0.01.
For GGCAUAGCUCACCACAGCGUGGCAAAGUGGCUGUGGCUAGAAUGCC [G5U A12C C42A], the self-cleavage was 0.
With GGCAUAGCUCACCACAGCGUGGCAAAGUGGCUGUGGCUAGAUUGCC [G5U A12C C42U] the self-cleavage was 0.01.
Variant GGCAUAGCUCACCACAGCGUGACAAAGAGGCUGUGGCUAAACUGCC [G5U A12C G22A U28A G40A] has a self-cleavage of 0.03.
In the case of GGCAUAGCUCACCACAGCGAGGCAAAGUGGCCGUGGCUAGACUGCC [G5U A12C U20A U32C], the self-cleavage is reported as 0.05.
Work on GGCAUAGCUCAGCACAGCGUGGCUAAGUGGCUGUGGCUAGACUGCC [G5U A12G A24U] yielded a self-cleavage of 0.
In the case of GGCAUAGCUCAGCACAGCGUGGCAAGGUGGCUAUGGCUAGACUGCC [G5U A12G A26G G33A], the self-cleavage is reported as 0.02.
Variant GGCAUAGCUCAGCAAAGCGUGGCUGAGUGGCUGUGGCUAUACUGCC [G5U A12G C15A A24U A25G G40U] has a self-cleavage of 0.02.
For GGCAUAGCUCAGCAAAGCGUGGCAAAGUGGAUGUGGCUAGACUGCC [G5U A12G C15A C31A], the self-cleavage was 0.1.
GGCAUAGCUCAGCACAUCGUGGCAAAGUGGCUGUGGCUAGACUGCC [G5U A12G G17U] showed a self-cleavage of 0.03.
GGCAUAGCUCAGCACAGCGUGGCAAAGUGACUGCGGCUGGACUGCC [G5U A12G G30A U34C A39G] gave a self-cleavage of 0.15.
Variant GGCAUAGCUCAGCACAGCGUGGCAAAGUGGCGGUGGCUAGACUACC [G5U A12G U32G G44A] has a self-cleavage of 0.05.
Variant GGCAUAGCUCAUCACUGGGUGGCAAAGUGGCUGUGGCUAGGCUGCC [G5U A12U A16U C18G A41G] has a self-cleavage of 0.01.
With GGCAUAGCUCAUCACAGCGUGGCAAUGUGGCUGUGGCUAGAAUGCC [G5U A12U A26U C42A] the self-cleavage was 0.03.
In the case of GGCAUAGCUCAUCACAGCGUGGCAAAGUGGCUGUGGCUAGUCUGCC [G5U A12U A41U], the self-cleavage is reported as 0.04.
In the case of GGCAUAGCUCAUAACAGCGUGACAAAGUGGCUGUGGCUAGUCUGCC [G5U A12U C13A G22A A41U], the self-cleavage is reported as 0.06.
GGCAUAGCUCAUCACAGCGUGGCAAAGUGGUUGUGGCUAGACUAGC [G5U A12U C31U G44A C45G] showed a self-cleavage of 0.28.
GGCAUAGCUCAUCACAGCCUGGCUAAGUGGCUGUGGCUAGACUGCC [G5U A12U G19C A24U] showed a self-cleavage of 0.01.
GGCAUAGCUCAUCACAGCUUGGCACAGUGGAUGUGGCUAGUCUGCC [G5U A12U G19U A25C C31A A41U] gave a self-cleavage of 0.02.
Variant GGCAUAGCUCAUCACAGCGUGCUAAAGUGGCUGUGGCUAGACUGCC [G5U A12U G22C C23U] has a self-cleavage of 0.02.
For GGCAUAGCUCAACCCGCCGUGGCAAAGUGUCUGUGGCUAGACUGAC [G5U A14C A16G G17C G30U C45A], the self-cleavage was 0.09.
For GGCAUAGCUCAACCCAGCGUGGCGAAGUGGCUGUGGCUAGACUGCC [G5U A14C A24G], the self-cleavage was 0.63.
With GGCAUAGCUCAACCCAGCGUGGCAACGUGGCUGUGGCUAGACUGCC [G5U A14C A26C] the self-cleavage was 0.05.
